The values that follow come from article PMC4336329 (PLoS ONE, 2015).

Molecules are shown by their SMILES. Among all 310,000 compounds or so, about 2,200 (0.71%) showed an effect of 50% or more. Effects have a minus sign here. Some of the results follow.

In this test the target is human ether-à-go-go-related gene (hERG) potassium channel (human, UniProt Q12809). Description: primary screen, population patch clamp on CHO cells stably expressing hERG.
Sequence of human ether-à-go-go-related gene (hERG) potassium channel (Q12809 whole entry, looked up): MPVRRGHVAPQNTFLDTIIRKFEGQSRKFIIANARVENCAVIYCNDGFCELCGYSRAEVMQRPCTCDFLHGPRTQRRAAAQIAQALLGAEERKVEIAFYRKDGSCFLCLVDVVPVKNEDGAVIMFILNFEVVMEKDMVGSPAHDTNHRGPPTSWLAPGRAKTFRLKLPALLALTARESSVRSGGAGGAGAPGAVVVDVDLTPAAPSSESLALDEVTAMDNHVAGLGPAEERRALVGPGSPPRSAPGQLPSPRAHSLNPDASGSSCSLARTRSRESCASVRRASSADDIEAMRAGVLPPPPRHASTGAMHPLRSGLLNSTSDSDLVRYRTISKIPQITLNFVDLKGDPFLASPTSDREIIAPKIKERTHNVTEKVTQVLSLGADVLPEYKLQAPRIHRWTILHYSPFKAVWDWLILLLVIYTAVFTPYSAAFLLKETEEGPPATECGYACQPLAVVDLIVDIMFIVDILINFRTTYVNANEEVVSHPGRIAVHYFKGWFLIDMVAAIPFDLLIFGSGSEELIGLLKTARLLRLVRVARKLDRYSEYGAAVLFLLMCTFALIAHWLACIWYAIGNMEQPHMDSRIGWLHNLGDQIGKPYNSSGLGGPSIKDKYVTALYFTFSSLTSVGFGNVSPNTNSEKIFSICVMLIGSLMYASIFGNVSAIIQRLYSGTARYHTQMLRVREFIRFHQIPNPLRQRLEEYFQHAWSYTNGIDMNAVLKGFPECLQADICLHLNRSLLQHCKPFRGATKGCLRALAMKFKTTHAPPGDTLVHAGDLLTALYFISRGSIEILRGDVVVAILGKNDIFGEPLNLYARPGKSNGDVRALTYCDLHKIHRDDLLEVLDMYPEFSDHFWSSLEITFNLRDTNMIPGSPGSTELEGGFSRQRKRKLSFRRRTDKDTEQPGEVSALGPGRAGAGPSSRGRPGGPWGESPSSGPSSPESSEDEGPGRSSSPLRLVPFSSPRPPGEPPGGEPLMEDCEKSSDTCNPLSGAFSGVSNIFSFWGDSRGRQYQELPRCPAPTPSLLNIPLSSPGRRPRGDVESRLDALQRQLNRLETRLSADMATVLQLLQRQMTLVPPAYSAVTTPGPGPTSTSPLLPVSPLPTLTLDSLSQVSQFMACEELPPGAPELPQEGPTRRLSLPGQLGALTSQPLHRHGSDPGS
With `O=C(c1ccco1)N1CCN(C2CCCC2)CC1`, the “hERG current change (%, negative = inhibition) at 1uM” value came out at 11.6%.
`CCc1nnc(SC(C)C(=O)Nc2nccs2)n1C` (stereo not shown): the “hERG current change (%, negative = inhibition) at 1uM” value is -2.11%.
With `O=C(CN1CCc2ccccc21)NN1CC(=O)N(c2ccc(Cl)cc2)CC1=O`, the “hERG current change (%, negative = inhibition) at 1uM” value stood at 13.8%.
Next, `CSc1ccc(S(=O)(=O)N2CCC(C(=O)Nc3cccnc3)CC2)cc1`: -0.0764%; `COc1ccc(NC(=O)c2nc(C)c(C3(C)CC(c4ccccc4)=NO3)s2)cc1` (stereo not shown): 7.07%; `CC(=O)Nc1ccc(OS(=O)(=O)c2ccc(Cl)cc2)cc1`: -1.62%.
For the compound `O=c1c2oc3ccccc3c2ncn1Cc1cccc(Cl)c1`, the “hERG current change (%, negative = inhibition) at 1uM” value was 13.2%.
Regarding `Cc1ccccc1NC(=O)NCc1ccc2c(c1)OCO2`, the “hERG current change (%, negative = inhibition) at 1uM” value is 8.1%.
Regarding `COCCN(CC(=O)Nc1cccc(C)c1C)C(=O)Cc1cccs1`, the “hERG current change (%, negative = inhibition) at 1uM” value came to 3.39%.
Next, `Nc1c(-c2ccc(Cl)cc2)cnn1-c1cc(C(F)(F)F)cc(C(F)(F)F)c1`: 9.14%; `NS(=O)(=O)c1ccc(CCNC(=O)CNC(=O)c2ccc(Oc3ccccc3)cc2)cc1`: 9.92%; `COc1cc2c(cc1OC)CN(Cc1ccc(C)s1)CC2`: -3.58%.
Consider `O=C(CSc1cccc2cccnc12)N/N=C/c1cccc(O)c1`, for which the “hERG current change (%, negative = inhibition) at 1uM” value is -0.494%.
As to `CCCCn1nc2cc(C(=O)NCc3ccc(OC(F)(F)F)cc3)ccc2c1OC`, the “hERG current change (%, negative = inhibition) at 1uM” value is reported as -0.644%.
In the case of `CS(=O)(=O)c1ccc(-c2nnc(NC(=O)c3cccc(N4C(=O)CCC4=O)c3)o2)cc1`, the “hERG current change (%, negative = inhibition) at 1uM” value is given as 5.75%.
Next, `COCCCN(C(=O)Cc1coc2cc(C)c(C)cc12)c1c(N)n(Cc2ccccc2)c(=O)[nH]c1=O`: 10.8%; `CC(=O)c1cccc(N(CC(=O)NC2CCCCC2)C(=O)c2csnn2)c1`: 12%; `CCCCNC(=S)NC(=O)c1ccccc1Br`: 8.34%.
Take `Cc1nc(CN(C)Cc2nc(Cc3cccc(F)c3)no2)cs1`: the “hERG current change (%, negative = inhibition) at 1uM” value is recorded as -2.24%.
Consider `C#Cc1cccc(NC(=O)c2ccc3c(c2)C(=O)N(Cc2cccnc2)C3=O)c1`, for which the “hERG current change (%, negative = inhibition) at 1uM” value is given as 1.08%.
In the case of `O=C(Nc1ccc(F)cc1)Nc1ccccc1C(=O)NCCN1CCNC1=O`, the “hERG current change (%, negative = inhibition) at 1uM” value came out at 11.5%.
On to `Cl.O=C(c1ccccc1)N1CCN(CC(O)COCC2CC=CCC2)CC1` (stereo not shown), for which the “hERG current change (%, negative = inhibition) at 1uM” value is recorded as -10.6%.
Next, `COCCN(C(=O)CCCC(=O)Nc1ccccn1)C(C(=O)NC1CCCCC1)c1ccc(C)cc1` (stereo not shown): 10.1%; `O=CN(CCN(C=O)CN1CCCCC1)CN1CCCCC1`: 15.2%; `CC(=O)OC1COC(N2CCc3cc([N+](=O)[O-])ccc32)C(OC(C)=O)C1OC(C)=O` (stereo not shown): 10.1%.
On to `COc1cc(OC)cc(-c2nnc(Nc3nc4c(F)cccc4s3)o2)c1`, for which the “hERG current change (%, negative = inhibition) at 1uM” value is given as 6.96%.
Regarding `O=S(=O)(c1cccc2nonc12)N1CCN(c2cccc(Cl)c2)CC1`, the “hERG current change (%, negative = inhibition) at 1uM” value came out at 0.583%.
For the compound `COc1cc(CC(=O)Nc2nc(-c3ccccc3)c(C(C)=O)s2)cc(OC)c1OC`, the “hERG current change (%, negative = inhibition) at 1uM” value amounted to 15.9%.
Take `COc1cccc(N(C(=O)CNC(=O)c2ccco2)C(C(=O)NC2CCCCC2)c2ccncc2)c1` (stereo not shown): the “hERG current change (%, negative = inhibition) at 1uM” value is 2.43%.
Take `C/C(=N\Nc1nc2ccccc2[nH]1)c1cc2ccccc2o1`: the “hERG current change (%, negative = inhibition) at 1uM” value was determined as 4.97%.
With `COc1ccc(-c2cc(C(F)(F)F)nc(N3CCN(C)CC3)n2)cc1OC`, the “hERG current change (%, negative = inhibition) at 1uM” value was -12.6%.
Turning to `Cc1cccc(NC(=O)CSc2nnc(Cn3cnc4ccccc43)o2)c1`, the “hERG current change (%, negative = inhibition) at 1uM” value is given as 4.81%.
Regarding `CC(=O)n1cc(C=C2C(=O)NC(=O)NC2=O)c2ccccc21`, the “hERG current change (%, negative = inhibition) at 1uM” value was 4.9%.
For `COC(=O)c1ccccc1NC(=O)c1ccc(COc2ccc(C)c(C)c2)o1`, the “hERG current change (%, negative = inhibition) at 1uM” value stood at 14.1%.
In the case of `CCOC(=O)c1ccc(N/C=C/C(=O)c2ccc(OC)c(OC)c2)cc1`, the “hERG current change (%, negative = inhibition) at 1uM” value is on record as 8.27%.
Turning to `O=C(/C=C/c1cccc([N+](=O)[O-])c1)OCC(=O)c1ccccc1`, the “hERG current change (%, negative = inhibition) at 1uM” value turned out to be 0.958%.
`O=C(COc1c(Cl)cc(Cl)cc1Cl)c1ccc(Cl)cc1`: the “hERG current change (%, negative = inhibition) at 1uM” value is 9.26%.
In the case of `O=C1CN(CC(=O)Nc2ccc(SC(F)F)cc2)CCN1`, the “hERG current change (%, negative = inhibition) at 1uM” value was -15.4%.
As to `CN1CCN(c2ccc(NC(=O)c3cc(S(N)(=O)=O)ccc3N3CCOCC3)cc2)CC1`, the “hERG current change (%, negative = inhibition) at 1uM” value amounted to 2.65%.
Next, `C#CCSc1nnc(C)c(C)n1`: 3.2%; `Cc1cc(C(=O)Nc2ccc3c(c2)CCC3)ccc1[N+](=O)[O-]`: 8.85%; `O=C1COc2ccc(C(=O)COC(=O)CNC(=O)c3ccccc3)cc2N1`: 7.37%.
As to `Cc1ccc(C(=O)OCC(=O)Nc2ccc3[nH]c(=O)[nH]c3c2)o1`, the “hERG current change (%, negative = inhibition) at 1uM” value is on record as 10.8%.
Consider `Cc1ccc(NC(=O)NCC(c2ccccc2)N(C)C)cc1` (stereo not shown), for which the “hERG current change (%, negative = inhibition) at 1uM” value amounted to 15%.
Turning to `COc1ccc(-c2c(-c3cc(OC)cc(OC)c3)n(C)c3ccc(-c4ccc5[nH]ccc5c4)cc23)cc1`, the “hERG current change (%, negative = inhibition) at 1uM” value is given as 9.32%.
As for `CS(=O)(=O)n1nc(-c2ccco2)nc1N`, the “hERG current change (%, negative = inhibition) at 1uM” value is 13.7%.
`CN1CCN(CCCNC(=O)c2ccc3c(=O)n(CCc4ccccc4)c(=O)[nH]c3c2)CC1`: the “hERG current change (%, negative = inhibition) at 1uM” value turned out to be 14.6%.
For the compound `CN1CCN(Cc2ccc3ccccc3c2)CC1`, the “hERG current change (%, negative = inhibition) at 1uM” value stood at 19.5%.
Turning to `COCc1c(Br)c(C)nc(OCC(=O)O)c1C#N`, the “hERG current change (%, negative = inhibition) at 1uM” value was found to be 10.6%.
In the case of `O=C(O)c1cccc(S(=O)(=O)N2CCCC(c3nc4c(nnn4Cc4ccc(F)cc4)c(=O)[nH]3)C2)c1` (stereo not shown), the “hERG current change (%, negative = inhibition) at 1uM” value stood at 13.7%.
Next, `O=C(NCC1CCCCC1)C1CCN(C(=O)NC2CCCCC2)CC1`: 12.8%; `Nc1cc(C(=O)c2cccs2)ccc1Cl`: 1.79%.
The figure for `O=C(O)c1ccc(N/N=C/c2ccc(-c3cccc(Cl)c3)o2)cc1` is 11.2%.
Turning to `OCCNNC(=S)NC1CC2C=CC1C2` (stereo not shown), the “hERG current change (%, negative = inhibition) at 1uM” value is 14%.
For `COc1ccc(C(=O)NCC(=O)N2CC=C(c3ccccc3)CC2)cc1OC`, the “hERG current change (%, negative = inhibition) at 1uM” value was -4.07%.
Take `Cc1ccccc1CN(C)C(C)C(=O)NCc1ccccc1` (stereo not shown): the “hERG current change (%, negative = inhibition) at 1uM” value came to 13.1%.
On to `COCCn1c(SCC(=O)Nc2cccc(C)c2)nnc1C(C)C`, for which the “hERG current change (%, negative = inhibition) at 1uM” value is listed as 9.74%.
The figure for `COc1cccc(OCc2cc(C(=O)N3CCN(C)C(c4ccccc4)C3)no2)c1` (stereo not shown) is 8.08%.
Next, `Cc1ccc2c(c1)N(CC(=O)NCC1CCCO1)C(=O)C(C)O2` (stereo not shown): -0.627%.
As for `Cc1cccc(CN2CCSCC2)c1`, the “hERG current change (%, negative = inhibition) at 1uM” value worked out at 12.7%.
Regarding `Cc1ccc(-n2nnnc2CNC(=O)c2ccc(Br)o2)cc1C`, the “hERG current change (%, negative = inhibition) at 1uM” value amounted to 25.7%.
In the case of `Cc1c(CCC(=O)NCCC(=O)O)c(=O)oc2cc3occ(-c4ccccc4)c3cc12`, the “hERG current change (%, negative = inhibition) at 1uM” value amounted to 10.9%.
Next, `CCC1CCCCN1Cc1nc2c(c(=O)n(C)c(=O)n2C)n1Cc1cccc2ccccc12` (stereo not shown): 11%; `O=C(CCc1ccccn1)N1CCCC(Nc2ccc(F)cc2)C1` (stereo not shown): 1.84%; `Cc1cc(C(=O)O)cc(S(=O)(=O)NNC(=O)c2cccs2)c1C`: 11.4%.
The figure for `Cc1ccc(C(=O)NC(=S)N2CC(C)OC(C)C2)cc1[N+](=O)[O-]` (stereo not shown) is 16.5%; for `COc1ccc(CC(=O)OCC(=O)NC(=O)Nc2ccccc2F)cc1` it is 9.99%.
Regarding `CCCNC(=O)C(Cc1cccc(Cl)c1)NC(=O)c1ccc(C#N)cc1` (stereo not shown), the “hERG current change (%, negative = inhibition) at 1uM” value is reported as 3.48%.
`O=c1c2ccccc2ncn1-c1ccc([N+](=O)[O-])cc1[N+](=O)[O-]`: the “hERG current change (%, negative = inhibition) at 1uM” value amounted to 6.59%.
Turning to `N#CC1(c2ccccc2)CCN(C2CC(=O)N(c3ccc4c(c3)OCO4)C2=O)CC1` (stereo not shown), the “hERG current change (%, negative = inhibition) at 1uM” value is 15.3%.
For `O=C(NCCCCc1ccccc1)C1CC(c2ccc(C(F)(F)F)cc2)=NO1` (stereo not shown), the “hERG current change (%, negative = inhibition) at 1uM” value was determined as 0.396%.
Consider `CCOCCCNC(=O)C(c1ccccc1)N(Cc1cccs1)C(=O)CNC(C)=O` (stereo not shown), for which the “hERG current change (%, negative = inhibition) at 1uM” value is 3.43%.
With `Cc1nc2nc(SCc3ccc([N+](=O)[O-])cc3)[nH]c2cc1Br`, the “hERG current change (%, negative = inhibition) at 1uM” value is given as 9.16%.
The figure for `O=C(CCCCN1CCCCC1)c1ccc2c(c1)Cc1ccccc1-2` is -5.02%.
The figure for `COc1ccccc1N1CCN(C(=O)CNC(=O)Cn2cnc3sc(C)c(C)c3c2=O)CC1` is -9.87%; for `O=c1[nH]c(=O)n(-c2cccc(Cl)c2)c(O)c1C=NCCN1CCCCC1` it is 12.6%; for `COc1cc2c(cc1NC(=O)C1CCCO1)oc1ccccc12` (stereo not shown) it is 1.54%.
Next, `O=C(N/N=C/c1ccncc1)c1ccccc1OCc1ccc(Br)cc1`: 5.77%.
With `CCOC(=O)N1N=C(C)CC1(O)c1ccccc1` (stereo not shown), the “hERG current change (%, negative = inhibition) at 1uM” value amounted to 2.74%.
In the case of `CC(C)NC(=O)c1cc2nc(-c3ccco3)cc(C(F)(F)F)n2n1`, the “hERG current change (%, negative = inhibition) at 1uM” value is 6.23%.
For the compound `Cc1nc2cc(NC(=O)Nc3ccc(N4CCOCC4)cc3)ccc2n1C`, the “hERG current change (%, negative = inhibition) at 1uM” value is 11.8%.
Turning to `COc1cccc(NC(=O)C(C)Sc2nnc(C3CC3)n2C2CC2)c1` (stereo not shown), the “hERG current change (%, negative = inhibition) at 1uM” value was -1.51%.
The figure for `CCCNC(=O)[C@H](Cc1c[nH]c2ccccc12)NC(=O)c1ccccc1Cl` is -5.53%.
`Cc1ccc2nc(Cl)c(CN(C(=O)c3cnccn3)C3CCCCC3)cc2c1`: the “hERG current change (%, negative = inhibition) at 1uM” value was -7.65%.
Take `O=C(CSc1nc2ccccc2[nH]1)Nc1ccccc1F`: the “hERG current change (%, negative = inhibition) at 1uM” value is 6.04%.
As to `COCCN1C(=O)NC(=O)/C(=C\c2ccc(F)cc2)C1=O`, the “hERG current change (%, negative = inhibition) at 1uM” value turned out to be 18.9%.
In the case of `Cc1ccc(NC(=O)c2cccc(C(=O)OC(C)C)n2)c(Br)c1`, the “hERG current change (%, negative = inhibition) at 1uM” value is -1.63%.
Turning to `CCOC(=O)c1c(C)n(Cc2ccccc2)c2ccc(OCC(O)CN3C(=O)CNC3=O)cc12` (stereo not shown), the “hERG current change (%, negative = inhibition) at 1uM” value was determined as 9.17%.
